The results in this text go back to patent US11542275B2, “Substituted imidazolidin-2-one derivatives as PRMT5 inhibitors” (Aurigene Discovery Technologies Limited, priority 2018, dated 2023).

What is called IC50 is the concentration that gives 50% inhibition. Higher therefore signals weaker potency in that assay.

The target of the assay is PRMT5/MEP50 Complex (Homo sapiens (Human), UniProt O14744). Kind of assay: PRMT5 inhibition based on TR-FRET assay. The format is biochemical. Particulars: 32 nM PRMT5:MEP50 complex, 50 nM Histone-H4 peptide, 1 μM SAM, 90 minutes at room temperature. The source says:
Protein arginine methyltransferase 5 (PRMT5) is a type II arginine methyltransferase that catalyze mono- and symmetric demethylation on arginine residues of histone or non-histone proteins in presence of S-adenosylmethionine (AdoMet or SAM) a cofactor responsible for donating the methyl group. PRMT5 is reported to be overexpressed in several human cancers. To identify compounds that inhibit the PRMT5 and decrease its activity, a TR-FRET based assay has been established. Time-resolved fluorescence resonance energy transfer (TR-FRET) HTS assays are homogeneous proximity assays where the interaction of two dye-labeled binding partners is detected by the energy transfer between a donor and an acceptor dye, and the subsequent light emission by the acceptor dye. PRMT5 catalyzes Histone H4 peptide which is biotin tagged to the Lysine amino acid at carboxyl end, in presence of S-adenosyl-1-methionine (SAM) to methylate the peptide. The antibody specific to mono methylated H4 peptide (H4R3) with Ig conjugate binds to the methylated peptide, indirectly binding to the Europium lanthanide. […]
The compound dilutions were prepared as 7.5% DMSO stock solutions in assay buffer. […] The plates were then read on Victor-3 with Excitation at 340 nm and Emissions collected at 615 and 665 nm in TR-FRET protocol. […]
For orientation: In TR-FRET formats the signal depends on donor and acceptor labels being close together.

The compound `COc1cc(-c2ccc(CN3CCN(C[C@H](O)CN4CCc5ccccc5C4)C3=O)cn2)ccn1` [Compound 58, (R)-1-(3-(3,4-dihydroisoquinolin-2(1H)-yl)-2-hydroxypropyl)-3-((2′-methoxy-[2,4′-bipyridin]-5-yl)methyl)imidazolidin-2-one] registered an IC50 of 20 nM. This counts as double-digit nanomolar. In the case of `CC1COCCC1c1ccc(CN2CCN(C[C@H](O)CN3CCc4ccccc4C3)C2=O)nc1` (stereo partly drawn) [Compound 68, 1-((R)-3-(3,4-dihydroisoquinolin-2(1H)-yl)-2-hydroxypropyl)-3-((5-(3-methyltetrahydro-2H-pyran-4-yl)pyridin-2-yl)methyl)imidazolidin-2-one] it was 54 nM.
